{"source": "paper PMC12136788", "binders": {"B1": {"name": "17452503_17452623_484_5pUTR_ENSMUSG00000006134_ENSMUST00000006293|mouse|control|control (ssRNA)", "RNA": "GGGAGUUCUACAGUCCGACGAUCGGCCCCAUGUACCAGGCAGAGCGGUCUGAAGAAUCAAACCUGGCGGAGGACAUGGUGUUGGGCUCGGGGAUGGGCGGCGUCUGCGGCUCUCUUGCUUGGGAAGCCUUUACCCGCUGUCGGCAACAGAGGAUUGAGCAUCA"}, "B2": {"name": "38655397_38655517_4628_CDS_ENSG00000105738_ENST00000222345|human|control|control (ssRNA)", "RNA": "GGGAGUUCUACAGUCCGACGAUCCCCCGCCAGUCCCGUGGGGGUGCUGGAGCCGGAGGAGUACAGCUUCGGUCGGUAGCCCUUGCUUUGGCCGGCAACUGCGGGGGCAGGGGAGACCUCCCGCCGCCUGUCUGCGUGGUGGGACAACAGAGGAUUGAGCAUCA"}, "B3": {"name": "chr8:87798904:87798905:-_ENSMUSG00000031696_ENSMUST00000034131|mus_hu|FALSE|FALSE (ssRNA)", "RNA": "GGGAGUUCUACAGUCCGACGAUCAAAAUAUUGUUGUAAGUGUCAACUGGUAUUUUCAAAAGUCUGGUGAGUUCCUUUGAAACUGCACUACUGGUAGCAAUAUGUUCAAGGUUGAGCUUAUUGAAUAUCUCCACUGUUGUUUCUCAACAGAGGAUUGAGCAUCA"}, "B4": {"name": "87925773_87928352_424_CDS_ENSG00000188994_ENST00000369577|human|control|control (ssRNA)", "RNA": "GGGAGUUCUACAGUCCGACGAUCUUCACAGCUGCCAUUCUCCAUCAGCUUUUCAUGAGCUACCUGCACCAGUGUCUGAAAUUGUUCCCACUGUUUAUCUGAUAACUCAACAGGCAGACACAGUAAAAGUUCAACACAGCUUAACAACAGAGGAUUGAGCAUCA"}, "B5": {"name": "chr11:18503389:18503390:-_ENSG00000074319_ENST00000251968|hu_hu|hu_hu_hu_mus_True|48_108 (ssRNA)", "RNA": "GGGAGUUCUACAGUCCGACGAUCAUUUUCCAUUUUUUCCAGAGCAGAACUUAGUUCUUCAUCCUUCUUUUUCAAAAGUUCUAUGUUUUUAUCAACCUCAGCUACUUCUUGAUCUAAGCGGGUGACCAUCUCUUCCAGUUUCUGCAACAGAGGAUUGAGCAUCA"}, "B6": {"name": "78478775_78478895_569_CDS_ENSG00000162616_ENST00000370763|human|control|control (ssRNA)", "RNA": "GGGAGUUCUACAGUCCGACGAUCUUCUUCAGAAUCUCUACCACCACCCAUUCGUCUUCCAAAGAAAAUUUCAAAGGGGUUGGACCCUCCGAAAAAUGCAGCAAAUGUAGCAUGAGGAUCGCCAUGAAAGGUGUACCGGAAGGUCAACAGAGGAUUGAGCAUCA"}, "B7": {"name": "chr13:42874254:42874255:+_ENSG00000023516_ENST00000025301|hu_hu|FALSE|FALSE (ssRNA)", "RNA": "GGGAGUUCUACAGUCCGACGAUCUCCACCAAUAUCUGUUUGGCAAAAACAUUCAGCUGGAGUACAGCCUCCAAGAGGACUAAAAGCAGAGGAUCGAAUAGGACUAAAUAAACCACUAUCUUCCCUUGAUGCCUUCACUGGGCGCAACAGAGGAUUGAGCAUCA"}, "B8": {"name": "chr18:59899606:59899607:+_ENSG00000134444_ENST00000256858|hu_hu|FALSE|FALSE (ssRNA)", "RNA": "GGGAGUUCUACAGUCCGACGAUCUCCCAGCAUUAACAUAACGCUUUUUUCACUGUCUGCAAUACGAGACACCUCGUAUCCUAAACGACUAUCUGCUGACAUUCGACAAAAAGAGAGUAGUGCUUGAUGGAAUGCAGGAGACAACAACAGAGGAUUGAGCAUCA"}, "B9": {"name": "59820218_59820338_214_3pUTR_ENSMUSG00000035469_ENSMUST00000043227|mouse|control|control (ssRNA)", "RNA": "GGGAGUUCUACAGUCCGACGAUCCGCCGCACACCUGGGGGAAGCGCCCGCAAGACGGAAUCCGCGGGUGCCCGGUGCGGGGUGCGCGUCGCCGGGGAGUCGCGAACGCGCCUGGUGCGCACGGCCCUCGGGAGGGCGCGGACUCAACAGAGGAUUGAGCAUCA"}, "B10": {"name": "44721345_44733441_1335_CDS_ENSG00000105953_ENST00000222673|human|control|control (ssRNA)", "RNA": "GGGAGUUCUACAGUCCGACGAUCGUCGGUGGUGAAGCCGAUCUGGUUGUUGACGACCACGUGCACGGUGCCAUGAGUUGUGUAGGAUGGCAGGUCGCUGAGGUGGAAGGUCUCGUACACAAUGCCCUGGCCAGCAAAUGCAGCCAACAGAGGAUUGAGCAUCA"}, "B11": {"name": "chr6:41757443:41757444:+_ENSG00000214736_ENST00000398881|hu_mus|hu_hu_hu_mus_False|28_108 (ssRNA)", "RNA": "GGGAGUUCUACAGUCCGACGAUCGAACUGUCUGCUGGCAACAUCUCAGCCGACACUGGGGGAUGGGGGGGCAGUGGGGGGGGGUUCAGGCAAGGAGAGGGAGUCAACCCAUCUGAACACUCAGGUAGGAUCUUGUGGUCACAGCAACAGAGGAUUGAGCAUCA"}, "B12": {"name": "235950199_235950319_1250_CDS_ENSG00000130147_ENST00000392011|human|control|control (ssRNA)", "RNA": "GGGAGUUCUACAGUCCGACGAUCCAAGUCCAGGUCGUGGCAAGACCGGGCCAGCUUCCUGUGGUUUAGCCAGGCAGUUCGAAAAUCCUCCCGGCUCUGAAAUUGCUCGGGGGCAGGUGAUUUCAAGCCGGUGAAGAAACUCGACAACAGAGGAUUGAGCAUCA"}, "B13": {"name": "chr1:151007788:151007789:+_ENSG00000143363_ENST00000271620|hu_hu|motif|central (ssRNA)", "RNA": "GGGAGUUCUACAGUCCGACGAUCUGGGUCAACACGCCAUGAACCACACCCCUAUUCGUGCUACAUGAGGCUGAGUCCUUGCGGCAACCACACAGAAAUACAGACAAUCAAGUGAACCUGAGCACCCCCAGGGAUAACAGAAGACAACAGAGGAUUGAGCAUCA"}, "B14": {"name": "chr10:84155644:84155645:+_ENSMUSG00000034453_ENSMUST00000077175|mus_hu|FALSE|FALSE (ssRNA)", "RNA": "GGGAGUUCUACAGUCCGACGAUCACUAUAGCUCAUCACAGCAACUGUUGCAUUCUGUCCAGCUGGCAGUUUCUCAAAUUCUAUCAAUUCAAUGGUUUUUGUCUUAACCAUGGGUUUUUGUGGAUAUGCUAGUAGAUACAUGAGCAACAGAGGAUUGAGCAUCA"}}, "note": "The list shows a part of the results."}
{"biological_target": "T1, UNK ZnF1-3 (human, UniProt Q9C0B0 31-174)", "T1 sequence": "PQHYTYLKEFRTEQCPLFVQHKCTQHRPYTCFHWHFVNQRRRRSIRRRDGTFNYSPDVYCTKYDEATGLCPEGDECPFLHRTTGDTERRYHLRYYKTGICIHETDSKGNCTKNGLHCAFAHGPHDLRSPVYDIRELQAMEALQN", "experiment": "nsRBNS (natural sequence RNA bind-n-seq); RBNS binding buffer (assumed for nsRBNS): 25 mM Tris pH 7.5, 150 mM KCl, 3 mM MgCl2, 0.01% Triton X-100, 500 ug/ml BSA, 20 U/ml SUPERase-In, 4 C; UNK is unkempt and MSI1 is Musashi-1; names of the RNAs are library labels; protein concentration not given here; high values mean tight binding", "units": {"binding signal": "enrichment R"}}
{"binder": "B1", "binding signal": 0.729}
{"binder": "B2", "binding signal": 0.545}
{"binder": "B3", "binding signal": 0.832}
{"binder": "B4", "binding signal": 1.04}
{"binder": "B5", "binding signal": 0.466}
{"binder": "B6", "binding signal": 1.17}
{"binder": "B7", "binding signal": 1.43}
{"binder": "B8", "binding signal": 0.842}
{"binder": "B9", "binding signal": 0.352}
{"binder": "B10", "binding signal": 0.508}
{"binder": "B11", "binding signal": 2.16}
{"binder": "B12", "binding signal": 0.823}
{"binder": "B13", "binding signal": 1.79}
{"binder": "B14", "binding signal": 1.05}
